Source: the supplement of paper PMC10126150
Sequences with one replicate were seen in a single cluster, so their values are uncertain.

Tested on: ATP
Experiment: switch fluorescence ratio, 500 uM ATP over buffer (Cy3 cluster intensity, sum of 5 cycles each) (fold (ratio)); higher = stronger signal-on switching upon ATP binding; sequences stand for … in TCGTCGGCAGCGTCAGATGTGTATAAGAGACAGTTTTTTTTTTTTTTTTTTTTTTTTT…TC
Settings: aptamer strand: ATP DNA aptamer (quencher-CACCTGGGGGAGTATTGCGGAGGAAGG + anchor), 100 nM annealed; ATP concentration: 500 uM; one replicate
Procedure, shortened: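 Cy3-labelled switching-strand clusters on a modified Illumina MiSeq flow-cell were annealed to 100 nM quencher-labelled ATP aptamer, imaged in selection buffer, then imaged after 15 min with 500 uM ATP at 22 °C. Five buffer/ATP cycles ran, with NaOH stripping and re-annealing between them. The fluorescence ratio is summed target-cycle over summed buffer-cycle Cy3 intensity per cluster, averaged per switch-domain sequence. Clusters outside 100-1000 RFU were excluded.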
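Also: ATP exposure 15 min at 22 °C before imaging.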

| Sequence | switch fluorescence ratio |
| --- | --- |
| TACTTATG | 1.01 |
| TCATTATAGA | 1.04 |
| GGCGGAGTTG | 1.03 |
| GGAGAATCTT | 1.03 |
| TTCCTTATAC | 1.99 |
| ACGAGCGGG | 0.978 |
| GCTGGTGCGT | 0.966 |
| CCGGTCCCAG | 2.33 |
| GATTTTGCC | 1.05 |
| AAACACCGAT | 1.06 |
| AGAGGTCCG | 1.09 |
| GGGCGACGAT | 0.977 |
| TACGCCCTTG | 1.06 |
| GTCACCGGCC | 1.23 |
| AGGACGTTCC | 1.26 |
| CTTCTTATTA | 0.983 |
| TTCTCACTGT | 1 |
| CGTACCCTGG | 1.26 |
| AAGCGGAACT | 1.02 |
| CTACGCTGGC | 1.54 |
| GCCCAGGATA | 1 |
| ACACAGAGGC | 1.02 |
| CGGAAAGAGT | 1.02 |
| ATGAATTGAG | 0.984 |
| CTCAAGTACA | 1.3 |
| AGAGCGGAAA | 1.01 |

| Sequence | switch fluorescence ratio |
| --- | --- |
| ATATCAGGCC | 0.961 |
| GCCATTGCAG | 0.988 |
| GACCAATCGA | 1.1 |
| CCTAGGTCGG | 1.07 |
| ATGGTGTTAG | 1.02 |
| TACGATGGGT | 1.01 |
| GTTTGATAAG | 1.03 |
| TTCACTAA | 1.08 |
| AAGGTGAAAT | 1.01 |
| AAGATCATCG | 1.02 |
| TACAATGTC | 1.09 |
| CTAGGACCAA | 1.01 |
| TAATTGTAGA | 0.976 |
| GCTACGGAAG | 1.14 |
| TGGGACCGTG | 0.929 |
| AGTTTCATCC | 1.04 |
| TAGCGTCGGC | 1.01 |
| CGGCCTAAAC | 1.1 |
| AGGTTCTCTT | 1 |
| CACGTGCATT | 1.06 |
| CTGTTTAAGC | 0.987 |
| CCCGAGCACG | 1.44 |
| TCCGTTTTTG | 1.02 |
| CGAGCGCAGG | 1.35 |
| TCCAATTGGT | 1.02 |
| TTCAAATGC | 1.01 |

| Sequence | switch fluorescence ratio |
| --- | --- |
| TGTTACATCC | 1.06 |
| ACGCTCGGGG | 1.07 |
| AATAGAGAG | 0.994 |
| AGTCGGCGCT | 1 |
| GGGCGTAGAT | 1.02 |
| TCGTTCATTA | 1.03 |
| ATAATTGCAG | 1.01 |
| GAAGAGTTAG | 0.993 |
| TCGTCCAGCA | 2.32 |
| CTGTCATAAT | 0.997 |
| AGAGCGGTCC | 1 |
| TGCAGGTGG | 1.06 |
| TTTACGCGTT | 1.03 |
| GTTGGTTGC | 1.02 |
| CGAAACATTG | 1.03 |
| GGCGGGCTTT | 1.01 |
| TCCGGAATAA | 4.11 |
| CGCTATAATT | 1.14 |
| TACAAGTCTC | 1.03 |
| TATGTGGAAA | 1.02 |
| GGTCTTGGCG | 0.999 |
| TAGGAGAAGC | 1.01 |
| TATAGCTGTA | 1.1 |
| GGCTGAGTGC | 1.02 |
| TTGGCTAGGA | 0.928 |
| CGCATGGAT | 1.11 |

| Sequence | switch fluorescence ratio |
| --- | --- |
| TTCCATCACT | 1.09 |
| AAGAGAAAAA | 1.02 |
| CGGCTCACGT | 1.02 |
| AGCATATACA | 2.15 |
| ATTAACGCAG | 0.979 |
| CACCAGAGTT | 1.04 |
| TGGTGTTGA | 0.985 |
| AACCACGCGG | 1.02 |
| TTCATCTCCA | 1.04 |
| GGAGGTAATG | 1.01 |
| GAAGGTTGTT | 0.982 |
| GCCTCCGGGG | 1.2 |
| CTAGTAACCT | 2 |
| TGCGGAATAA | 1.09 |
| GTTTCGGAAG | 1.02 |
| TCGGAGGGTC | 1.03 |
| TAGAAAG | 1.01 |
| CCAGTAACGC | 1.1 |
| CCTGTATAGT | 1.02 |
| GGTACGTAGG | 1.05 |
| GGTTCCATTG | 0.96 |
| TATGGTCGAC | 0.985 |
| GGGTTGGATA | 1 |
